Drawing on publication PMC12136788, this text covers binding signal for 14 molecules.

The chains are these.
T1: UNK ZnF1-3 (human, UniProt Q9C0B0 31-174)
T1 sequence: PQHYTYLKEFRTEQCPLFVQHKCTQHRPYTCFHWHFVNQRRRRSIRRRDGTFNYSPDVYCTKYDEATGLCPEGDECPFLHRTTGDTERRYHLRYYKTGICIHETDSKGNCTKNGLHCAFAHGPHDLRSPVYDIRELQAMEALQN

B1: chr14:48151594:48151595:+_ENSMUSG00000037536_ENSMUST00000168833|mus_hu|FALSE|FALSE (ssRNA)
RNA: GGGAGUUCUACAGUCCGACGAUCAUACAAGAUGUACAAAUUUAAGACUAGACAAUUAAAAAAAAAAAACACAAAAUUAUAGCCGCAACACUAUCCUAGCUGCAUUGUGGUGAUUAUAUUGUUCCGUUAGCUGUCCAUUAUAUACAACAGAGGAUUGAGCAUCA
B2: chr5:139702750:139702751:+_ENSMUSG00000036817_ENSMUST00000110883|mus_mus|FALSE|FALSE (ssRNA)
RNA: GGGAGUUCUACAGUCCGACGAUCCCUGGAGGUGGUCCCGUGGAUGGCAGAGUGGGCUGUGAGUGCGUCAGUGCGCGCUGAGAGCAUCCUGCAGUCACGGCAAGUGUAUCCAUUGCUGCUCGCCACCUCUGCUGCCAGUUCACCCAACAGAGGAUUGAGCAUCA
B3: chr4:17845017:17845018:+_ENSG00000109805_ENST00000514176|hu_mus|hu_hu_hu_mus_False|1_78 (ssRNA)
RNA: GGGAGUUCUACAGUCCGACGAUCGCUCUCUUAACUUGUAUCUUCAUUAAGGAACUCGCAAGGUUAAAGUUUACUUUUCUGUAGCGCAGCUGUUUUGGCUCGUCUGGGUAAUCUCAUCUUCAUUUCUGAUGGUGGUUUGGAACUCAACAGAGGAUUGAGCAUCA
B4: chr14:70842435:70842436:-_ENSG00000213463_ENST00000256366|hu_hu|FALSE|FALSE (ssRNA)
RNA: GGGAGUUCUACAGUCCGACGAUCCUGCACCUGUAACCUGUGCUGCACUCUCAGAGACACAGCAUAGCCUGCAUUACGAAAGAGGUCUACAGCAUCCUGGUGCAGCAGGUUCUUUAGGUCUUGGCCAUUUACCGAAAGGAUCUUCAACAGAGGAUUGAGCAUCA
B5: chr1:23374948:23374949:-_ENSMUSG00000026158_ENSMUST00000027343|mus_mus|motif|central (ssRNA)
RNA: GGGAGUUCUACAGUCCGACGAUCCCUCAAAAUCUUAACACCUCACAAAUCGGUACAAGCUAAAGCUGGUGUAUUAUGUACCGGGAAUGAGGAAGUGUUUCUUGUCUUACUUACAGGGAUAUGAUUCACAAAUAAGUAUGUAUCCAACAGAGGAUUGAGCAUCA
B6: chr5:128448638:128448639:+_ENSG00000066583_ENST00000173527|hu_mus|hu_hu_hu_mus_False|68_68 (ssRNA)
RNA: GGGAGUUCUACAGUCCGACGAUCGGCACUCGCCUUAAUUAGGUUCUGAAUUUCCUUGAACUUCGGGUGGUCCUUAUCAGCCACCAGCUGUAGGAGGACAGCCUCACUAGUGGUCACGAUGAUCCCAGUGCGGGCAAGACGCUCCAACAGAGGAUUGAGCAUCA
B7: chr7:7679991:7679992:-_ENSG00000106399_ENST00000396682|hu_hu|hu_hu_hu_mus_False|48_78 (ssRNA)
RNA: GGGAGUUCUACAGUCCGACGAUCUGGGAUGAAUCUUUUCCAGCUUCCCCACGAAGCAGACAGGCUUGUCGAUAUACUGUGGUAACAUGCCGGCGUUGACGCGCGCUUUGGGGAGCUGCAUUAUGUCCUCCAUGAUUCUGCCGCCAACAGAGGAUUGAGCAUCA
B8: 143533557_143533677_4073_CDS_ENSMUSG00000039477_ENSMUST00000151477|mouse|control|control (ssRNA)
RNA: GGGAGUUCUACAGUCCGACGAUCGCGGUGCUCUGUCUUACUCGGUAGUUCUAUCUGCGGCUCGGCAACCUGUGCAAAGUCUGAAACUUCAGAGGGCUCCCGGCAGCCCGGACCUGCUGUGCUCAACGCCUGGGCCUCGAGAGGCAACAGAGGAUUGAGCAUCA
B9: 79659231_79659351_840_CDS_ENSMUSG00000089715_ENSMUST00000109627|mouse|control|control (ssRNA)
RNA: GGGAGUUCUACAGUCCGACGAUCCCCUUGUGGGUCUGGUCGUGGCAGGGGACGGCGAGACAUACGGUGGCAGCGGCGGAUGUCUUUCUUGAGCCGGUGCACCGCAGCGCUGGAGUGCAGCUUGGGCGAGGAGGCGCUGGCGCUCAACAGAGGAUUGAGCAUCA
B10: 70697692_70698340_638_3pUTR_ENSMUSG00000003923_ENSMUST00000092430|mouse|control|control (ssRNA)
RNA: GGGAGUUCUACAGUCCGACGAUCGCUGCUCUUUAUACUUGCUCACAGCUUCUUUGUAUGCUUUCCACUCAGCUUUAAAAUCAGCUUCAUAAACCUUUUUUUCUGCUUCUGGUAGCUCCCUCCACAGGGCUGCAAUUUUCCUAACAACAGAGGAUUGAGCAUCA
B11: chr9:72466633:72466634:+_ENSMUSG00000037674_ENSMUST00000093820|mus_hu|motif|central (ssRNA)
RNA: GGGAGUUCUACAGUCCGACGAUCCUGAUAAGACUGUCCAGGCACAGCAAAAGCAUGAGGUUUCCUGAAACGGUCUUCCACGGGUUCCUGAUAGCUUGGGAGAAUACCAUGGCCAGAAACUGAUGAAUUACCAACCCCACUAUACAACAGAGGAUUGAGCAUCA
B12: chr2:198351390:198351391:-_ENSG00000144381_ENST00000345042|hu_mus|motif|central (ssRNA)
RNA: GGGAGUUCUACAGUCCGACGAUCUCAUUCCCACCCUCCACAGAAAGGCUGCUUCUGAACUCUCAUGUGGUGACACAGCGCGGCAGUCCUGAUGCUCACAGAACAGUAGAGAUGCCUCAGUGAUUUAAGUUGAAAGCAGGACACCAACAGAGGAUUGAGCAUCA
B13: chr7:151048522:151048523:+_ENSG00000013374_ENST00000566856|hu_mus|hu_hu_hu_mus_True|28_48 (ssRNA)
RNA: GGGAGUUCUACAGUCCGACGAUCCUGUUUCUUAUUUAUUACGAUCUUGAUGUAAUUUUCUUGAAAUCCGAAAGUUUCAGCUAUUUGGGACCUCAGUUCUCUACCAGUGAUGUGCAAGCGGGUCUCCAACAAGCUUUUCUUAUCCAACAGAGGAUUGAGCAUCA
B14: chr2:48026839:48026840:+_ENSG00000116062_ENST00000540021|hu_hu|hu_hu_hu_mus_False|48_48 (ssRNA)
RNA: GGGAGUUCUACAGUCCGACGAUCAUAGUGAGCCACUAGCGUCCUAAAUCUGGAACAGUGGCGGUCAUCCGAAAACUGGCCGAUGAAAAACUUUCCCAGUGAAGUGUCCACAAAGCAAACACCAUACACACGAGUGUGACCAGACAACAGAGGAUUGAGCAUCA

This is one part of the list.

For the test, the target named is T1, UNK ZnF1-3. As to the kind of experiment: nsRBNS (natural sequence RNA bind-n-seq); RBNS binding buffer (assumed for nsRBNS): 25 mM Tris pH 7.5, 150 mM KCl, 3 mM MgCl2, 0.01% Triton X-100, 500 ug/ml BSA, 20 U/ml SUPERase-In, 4 C; UNK is unkempt and MSI1 is Musashi-1; names of the RNAs are library labels; protein concentration not given here; high values mean tight binding.
With B1, the binding signal was determined as 3.16 enrichment R. The value for B2 was 0.817 enrichment R; that for B3 was 0.509 enrichment R; that for B4 was 0.54 enrichment R. For B5, the binding signal was 1.41 enrichment R.

Molecule B6 gave a binding signal of 0.654 enrichment R. Molecule B7 had a binding signal of 0.591 enrichment R. Take B8: the binding signal stood at 1.01 enrichment R. Consider B9, for which the binding signal came out at 0.821 enrichment R. As to B10, the binding signal came out at 0.495 enrichment R. Turning to B11, the binding signal amounted to 1.23 enrichment R. The figure for B12 is 1.42 enrichment R; for B13 it is 0.598 enrichment R; for B14 it is 1.16 enrichment R.
